Reference: PubChem BioAssay AID686979 (National Center for Advancing Translational Sciences (NCATS), 2013)
Among all 420,000 compounds or so, about 50,000 (12%) were called active. Inconclusive means that the source gave no clear call. Such entries were picked first, then a sample of the others. Calls come from the whole dose curve; as a rule, active = well fitted inhibition curve with a large enough effect; inconclusive = small, poorly fitted or top-dose-only effect; inactive = flat fitted curve, though single readings scatter. No potency is given beside an inconclusive call; the fits are too rough.

Experiment: qHTS for Inhibitors of human tyrosyl-DNA phosphodiesterase 1 (TDP1): qHTS in cells in presence of CPT; note: nearly all actives have a fitted effect of over 55% in size
Conditions: chicken DT40 Tdp1-/-;hTDP1 cells + 20 nM CPT, ATP luminescence, 48 h; activity change, negative = growth inhibition: at 46.2 µM (top of the series)
Method in brief: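 Cell growth measured by CellTiter-Glo luminescence after a minimum 48 h, 37 C compound exposure with 20 nM CPT in Tdp1-knockout DT40 cells stably expressing hTDP1, seeded 400/well; qHTS titration format.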
% is set by controls: 0 for no effect and ±100 for the full control effect; potency is the fitted concentration of half-maximal effect; tags give direction and shape of the fitted curve.

Compound	Potency	activity change, negative = growth inhibition
CCCCCCCCCCOC(=O)Cn1c(COc2cccc(OC)c2)[n+](C)c2ccccc21	active: 2.31 µM	
CC(C)c1c(C(=O)N/N=C/c2cccc3ccccc23)nnn1-c1nonc1N	inconclusive [inhibitor, single point]	
CCCn1c(NCc2c[nH]c3ccccc23)nc2ccccc21	inconclusive [inhibitor, single point]	
COC(=O)c1ccc(C(=O)OC)c(NC(=S)N2CCC(N3CCCCC3)CC2)c1	inactive	
Cc1ccc(C)c(S(=O)(=O)c2cn(Cc3ccccc3)c3cc(N4CCCC4)c(F)cc3c2=O)c1	inconclusive [inhibitor, single point]	
O=C(c1ccncc1)N1CCC[C@@]2(CCN(C(c3ccccc3)c3ccccc3)C2)C1	inconclusive [inhibitor, single point]	
CC(C)c1ccc(NC(=O)C(Cc2ccccc2)n2cccc2)cc1 (stereo not given)	active: 20.6 µM	
CCCC(C)NC(=O)CSc1nc(-c2ccccc2)cn1N (stereo not given)	inconclusive [inhibitor, single point]	
COc1cc(CCC(=O)Nc2nnc(C)s2)cc(OC)c1OC	active: 4.61 µM	
CCCCNC(=O)n1c(SC)nc2ccccc21	inconclusive [inhibitor, single point]	
COC(=O)c1cc(CN2CCN(c3ccccc3C)CC2)ccc1O	inconclusive [inhibitor, single point]	
Nc1c(S(=O)(=O)c2cccs2)c2nc3ccccc3nc2n1Cc1ccccc1	inconclusive [inhibitor, single point]	
CC(C)C[C@H](NC(=O)c1[nH]cnc1C(=O)N[C@@H](C)C(=O)OCc1ccccc1)C(=O)OC(C)(C)C	inconclusive [inhibitor, single point]	
CCCN1CCC(=O)N(CCSc2ccc(C)cc2)CC1	inconclusive [inhibitor, single point]	
CCCN(CCC)CCNC(=O)c1cc2c(=O)n(CC)c3ccccc3c2s1	inactive	
CCc1cccc2c(C(=O)COC(=O)c3c(C)noc3C)c[nH]c12	inconclusive [inhibitor, single point]	
CCN1C(=O)C(Cc2nc3ccccc3c(=O)n2C)c2ccccc21 (stereo not given)	inconclusive [inhibitor, single point]	
CCCCCN(C(=O)CN(C)Cc1ccc(OC)cc1OC)c1c(N)n(CCCC)c(=O)[nH]c1=O	inconclusive [inhibitor, single point]	
CC1(c2ccc(Cl)cc2)NC(=O)N(CC(=O)NCCC2=CCCCC2)C1=O (stereo not given)	inconclusive [inhibitor, single point]	
COc1cccc(NC(=O)c2oc3ccccc3c2NC(=O)c2ccc(OC(C)C)cc2)c1	inconclusive [inhibitor, single point]	
CCc1ccccc1OCC(=O)NNCC(=O)Nc1cccc(C#N)c1	inactive	
CCc1ccc2c(Cl)c(C(=O)N/N=C/c3c[nH]c4ccccc34)sc2c1	active: 20.6 µM	
COC(=O)C[C@@H]1C=C[C@H](NC(=O)Nc2ccc(F)cc2)[C@@H](CO)O1	inactive	
CC(=O)Nc1nonc1-c1nnc(SCC(=O)Nc2c(C)cccc2C)n1-c1ccccc1	inconclusive [inhibitor, single point]	

Compound	Potency	activity change, negative = growth inhibition
CCn1cc(C(=O)NCc2ccc(Cl)cc2)c(=O)c2cc(S(=O)(=O)N3CCc4ccccc4C3)ccc21	inactive	
FC(F)(F)c1ccccc1NC1=NCCC1	inactive	
O=C(CSc1ncnc2c(-c3ccc(Cl)cc3)nsc12)c1ccccc1	inconclusive [inhibitor, single point]	
COc1ccc(-c2cc(C(F)F)n3ncc(C(=O)N4CCc5ccccc54)c3n2)cc1	active: 3.66 µM	
O=C(c1cc(-c2ccccc2)nc2ccccc12)N1CCc2ccccc2C1	inconclusive [inhibitor, single point]	
COc1ccc2c(CNCCc3ccco3)c(C(=O)O)n(Cc3ccc(F)cc3)c2c1	inconclusive [inhibitor, single point]	
COc1ccccc1C(CCNCc1ccccc1)c1ccc(OC(C)C)cc1 (stereo not given)	active: 16.4 µM	
CS(=O)(=O)c1ccccc1C(=O)NCCC(c1ccccc1)c1ccccc1	inconclusive [inhibitor, single point]	
CC(=O)NC(Cc1c(F)c(F)c(F)c(F)c1F)C(=O)NCC(N)C(=O)c1ccccc1 (stereo not given)	inconclusive [inhibitor, single point]	
N#C/C(=C(\O)C(F)(F)F)c1nnc2n1CCCCC2	inactive	
COc1ccc(N2CCN(C(=O)CCNS(=O)(=O)c3cc(Br)cnc3N)CC2)cc1	inactive	
CCCCc1cc(=O)oc2c3c(cc(OCC(=O)N4CCC[C@H]4C(=O)O)c12)OC(C)(C)CC3	inactive	
Cc1ccc(-c2nnc(-c3cccc(Br)c3)o2)cc1	inconclusive [inhibitor, single point]	
CC1Sc2ccc(C(=O)NCc3cccc(C(F)(F)F)c3)cc2NC1=O (stereo not given)	inconclusive [inhibitor, single point]	
CC(=O)N/C(=C\c1ccccc1)C(=O)OCC(=O)NC1CCS(=O)(=O)C1 (stereo not given)	inactive	
O=C(NC1CCCCC1)Oc1cc2oc(=O)sc2cc1Br	active: 16.4 µM	
Cc1cccc(OCCNc2ccc([N+](=O)[O-])cn2)c1	inactive	
Cc1ccc(-c2cc(C(=O)N/N=C/c3c[nH]c4ccccc34)[nH]n2)cc1	active: 2.31 µM	
COc1ccc(C)cc1NC1(c2ccccc2)C(=O)c2ccccc2C1=O	inactive	
CCOc1ccc(CCNC(=O)CN2CCN(Cc3ccccc3C)C2=O)cc1OCC	inconclusive [inhibitor, single point]	
O=C(c1cnn(-c2nccc(-c3ccccc3C(F)(F)F)n2)c1C1CC1)N1CCN(CCO)CC1		inactive: -11.5% [at 9.04 µM]
CCOCCOC(=O)c1[nH]c2c(c1C)C(=O)CC(c1cccs1)C2 (stereo not given)	active: 1.03 µM	
N#CC1=C(N)Oc2cc(O)c(Cl)cc2C1c1ccccc1F (stereo not given)	inconclusive [inhibitor, single point]	
COC(=O)[C@]12CCCCC=C1N(Cc1ccco1)C(=O)[C@H](CC(=O)NCc1ccc(OC)c(OC)c1)C2	inconclusive [inhibitor, single point]	

Compound	Potency	activity change, negative = growth inhibition
CCN1C[C@@H]2[C@@H]3C(=O)N(Cc4ccccc4)C(=O)[C@@H]3[C@](Cc3ccccc3)(C(=O)OC)N2C1=NC1CCCCC1	inconclusive [inhibitor, single point]	
N#Cc1cnn2ccc(-c3ccc4c(c3)CCC4)nc12	inconclusive [inhibitor, single point]	
CC(C)(C)SC(C(=O)N1CCOCC1)c1ccc(Br)cc1 (stereo not given)	inactive	
COc1cccc(-c2cnc3c(NC(C)=O)cc(-c4ccsc4)cn23)c1	active: 13 µM	
Cc1ccc2c(c1)nnn2C1CCN(CC(=O)NNC(=O)c2ccco2)CC1	inactive	
COc1ccccc1N1CCN(CC(=O)Nc2cc(F)ccc2C)CC1	inconclusive [inhibitor, partial curve, poor fit]	
CCCCCCn1cc(CN2CC(N3CCN(Cc4ccccc4F)CC3)CS2(=O)=O)nn1 (stereo not given)	inactive	
COc1ccccc1CNC(=O)Cn1ccc2cc(S(=O)(=O)N3CCCC3)ccc21	inactive	
c1ccc2c(C3=NNC(=NC4CC4)SC3)c[nH]c2c1		inconclusive: -30.5% [inhibitor]
C[C@@H]1CN([C@@H](C)CO)C(=O)c2cc(Br)cnc2O[C@H]1CN(C)C(=O)c1cccc(F)c1	inactive	
O=c1oc(-c2cccc(Cl)c2)nc2c1cnn2-c1ccccc1	inconclusive [inhibitor, single point]	
CCCCC[C@@H](C)N1C[C@H](COCc2ccccc2)Oc2cc(N3CC[C@H](O)C3)ccc2S1(=O)=O	inconclusive [inhibitor, single point]	
O=C(/C=C/c1ccccc1)NC(NC(=S)Nc1cc(Cl)ccc1Cl)C(Cl)(Cl)Cl (stereo not given)	active: 5.17 µM	
CCCN(CCC)C(=O)CSc1nc2n[nH]c(C)c2c(=N)n1-c1ccc(OCC)cc1	inconclusive [inhibitor, single point]	
Cc1c(OCC(=O)NCCN2CCOCC2)ccc2c1oc(=O)c1ccccc12	inconclusive [inhibitor, single point]	
Cc1ccc(C(=O)N2CCN(c3ccc([N+](=O)[O-])cc3-n3cccc3)CC2)cc1	inconclusive [inhibitor, partial curve, poor fit]	
Cc1nc(-c2ccc(NC(=O)C(C)(C)C)cc2)c(-c2ccccc2)o1	inconclusive [inhibitor, single point]	
CCC(Sc1nc2nccnc2c(=O)n1Cc1ccc(Cl)cc1)C(=O)NC1CCCCC1 (stereo not given)	inconclusive [inhibitor, single point]	
CCNc1ncc2nc(-c3cn(C)c4ccccc34)c(=O)n(Cc3cccs3)c2n1	inactive	
COc1cccc(CNc2sc3c(c2C(=O)Nc2ccc(OC)cc2OC)CCC3)c1	active: 13 µM	
CCOc1ccc(NC(=O)c2cnn3c2NC(C)=C(C(=O)Nc2ccc(Cl)cc2)C3c2ccc(OC)c(OC)c2)cc1 (stereo not given)	active: 23.1 µM	
CNc1c(NS(=O)(=O)c2cc(OC)ccc2OC)c(=O)oc2ccccc12	inactive	
